Assay results: the antibiotic and cytotoxicity screens of Wong et al. (2023)
The other results are listed elsewhere or left out.

Experiments:
HSkMC = human skeletal muscle cells; assay: cytotoxicity call (relative viability < 0.9); conditions: 10 µM
HepG2 = assay: cytotoxicity call (relative viability < 0.9); conditions: 10 µM
S. aureus RN4220 = assay: growth inhibition call (relative growth <= 0.2); conditions: 50 µM

SMILES | cytotoxicity call (HSkMC) | cytotoxicity call (HepG2) | growth inhibition call (S. aureus RN4220)
C[C@H]1CN([C@@H](C)CO)C(=O)c2cccc(NC(=O)c3ccc(-c4nccs4)cc3)c2O[C@@H]1CN(C)Cc1ccc(C(=O)O)cc1 | inactive | inactive | inactive
C[C@@H]1CN([C@H](C)CO)C(=O)c2cc(NS(=O)(=O)c3cn(C)cn3)ccc2O[C@@H]1CN(C)Cc1ccc(C(=O)Nc2ccccc2N)cc1 | inactive | inactive | inactive
Cc1ccc(S(=O)(=O)N(C)C[C@@H]2Oc3ccc(NC(=O)c4ccncc4)cc3C(=O)N([C@H](C)CO)C[C@@H]2C)cc1 | inactive | inactive | inactive
CC(C)NC(=O)N(C)C[C@@H]1Oc2ccc(NS(=O)(=O)c3ccccc3)cc2CC(=O)N([C@@H](C)CO)C[C@H]1C | inactive | inactive | inactive
C[C@H](CO)N1C[C@H](C)[C@H](CN(C)S(C)(=O)=O)Oc2cc(-c3cccc(F)c3)ccc2S1(=O)=O | inactive | inactive | inactive
C[C@@H]1CN([C@H](C)CO)C(=O)c2cccc(NS(=O)(=O)c3ccc(Cl)cc3)c2O[C@H]1CN(C)S(=O)(=O)c1cn(C)cn1 | inactive | inactive | inactive
C[C@H]1CN([C@@H](C)CO)C(=O)c2cc(NC(=O)C3CC3)ccc2O[C@@H]1CN(C)Cc1ccc(-c2ccccc2)cc1 | inactive | inactive | inactive
CCCC(=O)Nc1ccc2c(c1)OC[C@H](C)N(S(=O)(=O)c1cn(C)cn1)C[C@@H](C)[C@H](OC)CN(C)C2=O | inactive | inactive | inactive
C[C@@H]1CN([C@H](C)CO)C(=O)Cc2cc(NC(=O)NC3CCCCC3)ccc2O[C@H]1CN(C)Cc1ccc(Oc2ccccc2)cc1 | inactive | inactive | inactive
COc1cccc(CNC(=O)C[C@@H]2C=C[C@H](NC(=O)C3CCOCC3)[C@H](CO)O2)c1 | inactive | inactive | inactive
CN1C(=O)c2cc(NC(=O)Nc3ccccc3F)ccc2OC[C@H]2O[C@@H](CC(=O)Nc3cccc(Cl)c3)CC[C@@H]21 | inactive | active | inactive
Cc1ccc(S(=O)(=O)N(C)C[C@@H]2OCCCC[C@@H](C)Oc3ccc(NS(C)(=O)=O)cc3C(=O)N([C@H](C)CO)C[C@@H]2C)cc1 | inactive | inactive | inactive
C[C@H]1CN([C@@H](C)CO)C(=O)c2cccc(NC(=O)c3ccc(-c4nccs4)cc3)c2O[C@H]1CN(C)Cc1ccc2c(c1)OCO2 | inactive | inactive | inactive
C=CCOC(=O)[C@@H]1[C@H]2C(=O)O[C@H](c3ccccc3)[C@H](c3ccccc3)N2[C@H](c2ccc(OCCOC(=O)[C@H]3C[C@H]4C(=O)N[C@@H](CCCC[N+](C)(C)C)C(=O)N4[C@H]3c3cccc(OCCO)c3)cc2)[C@@]12C(=O)Nc1ccc(I)cc12 | inactive | inactive | inactive
C[C@@H]1CN([C@@H](C)CO)C(=O)c2cc(NC(=O)Nc3cccc4ccccc34)ccc2O[C@@H](C)CCCCO[C@@H]1CN(C)Cc1ccc(C(F)(F)F)cc1 | inactive | inactive | inactive
COc1ccc([Si](C)(C)[C@@H]2[C@@H](CCO)O[C@]3(C(=O)N(Cc4cccc(N5C(=O)c6cccc7cccc5c67)c4)c4ccccc43)[C@H]2C)cc1 | inactive | active | inactive
COc1ccc(CN(C)C[C@H]2Oc3ccc(NC(=O)Nc4ccc(C(F)(F)F)cc4)cc3C(=O)N([C@@H](C)CO)C[C@H]2C)cc1 | active | active | inactive
O=C(CCCCCNC(=O)OCc1ccc(CO[C@H]2C[C@@H](c3ccc(C(F)(F)F)cc3)C=C(C(=O)N3CCN(Cc4ccc5c(c4)OCO5)CC3)O2)cc1)NO | inactive | inactive | inactive
COc1ccc(S(=O)(=O)N(C)C[C@H]2Oc3ccc(NC(=O)Cc4ccccc4)cc3CC(=O)N([C@H](C)CO)C[C@H]2C)cc1 | inactive | inactive | inactive
COCC(=O)N1CC[C@]2(CCOC2)C1 | inactive | inactive | inactive
C[C@H]1CN([C@@H](C)CO)C(=O)c2cccc(NC(=O)c3ccc(-c4nccs4)cc3)c2O[C@H]1CN(C)S(=O)(=O)c1cn(C)cn1 | inactive | inactive | inactive
CC(=O)N[C@H](Cc1ccc2ccccc2c1)C(=O)N[C@H](Cc1ccc(Cl)cc1)C(=O)N[C@H](Cc1cccnc1)C(=O)N[C@@H](CO)C(=O)N[C@@H](Cc1ccc(NC(=O)[C@@H]2CC(=O)NC(=O)N2)cc1)C(=O)N[C@H](Cc1ccc(NC(N)=O)cc1)C(=O)N[C@@H](CC(C)C)C(=O)N[C@@H](CCCCNC(C)C)C(=O)N1CCC[C@H]1C(=O)N[C@H](C)C(N)=O | inactive | inactive | inactive
C[C@@H]1CN([C@H](C)CO)C(=O)c2cc(NS(=O)(=O)c3cn(C)cn3)ccc2O[C@@H]1CN(C)C(=O)Nc1ccc(F)cc1 | inactive | inactive | inactive
C[C@H]1CN([C@@H](C)CO)C(=O)c2cc(NC(=O)CCC(F)(F)F)ccc2O[C@@H]1CN(C)C(=O)Nc1ccc(C(F)(F)F)cc1 | inactive | inactive | inactive
CC(=O)O[C@H]1C=C[C@@H](O)C1 | inactive | inactive | inactive
Cc1ccc(S(=O)(=O)Nc2cccc3c2O[C@H](CN(C)C(=O)Nc2ccc(C(F)(F)F)cc2)[C@@H](C)CN([C@@H](C)CO)C3=O)cc1 | inactive | inactive | inactive

SMILES | cytotoxicity call (HSkMC) | cytotoxicity call (HepG2) | growth inhibition call (S. aureus RN4220)
C[C@@H]1CN([C@@H](C)CO)S(=O)(=O)c2ccc(C3=CCCC3)cc2O[C@H]1CN(C)C(=O)Cc1ccncc1 | inactive | inactive | inactive
C[C@@H]1CN([C@@H](C)CO)C(=O)Cc2cc(NS(C)(=O)=O)ccc2O[C@H]1CN(C)Cc1ccc(C(F)(F)F)cc1 | inactive | inactive | inactive
Nc1ncnc(NCc2cccnc2)c1[N+](=O)[O-] | inactive | inactive | inactive
CNC(=O)C[C@H]1CC[C@@H]2[C@H](COC[C@@H](O)CN2C(=O)c2ccccn2)O1 | inactive | inactive | inactive
CC(C)NC(=O)N(C)C[C@H]1Oc2ccc(NC(=O)C3CCCCC3)cc2C(=O)N([C@@H](C)CO)C[C@@H]1C | inactive | inactive | inactive
NCc1cn2cc(Cl)ccc2n1 | inactive | inactive | inactive
Cc1noc(C)c1NC(=O)N(C)C[C@H]1Oc2ccc(NS(=O)(=O)c3c(C)noc3C)cc2C(=O)N([C@@H](C)CO)C[C@@H]1C | inactive | inactive | inactive
CCN1[C@@H]2c3ccc(-c4cccnc4)c(=O)n3C[C@@H]2[C@@H](CO)[C@@H]1C(=O)NCCc1cn(C)cn1 | inactive | inactive | inactive
Cc1sc(Nc2ccccc2)nc1-c1ccc(Cl)cc1 | inactive | active | inactive
C[C@H]1[C@H]([Si](C)(C)F)[C@@H](CC(=O)N2Cc3ccccc3C[C@H]2CO)O[C@]12C(=O)N(c1ccccc1)c1ccccc12 | inactive | inactive | inactive
C[C@@H]1CN([C@H](C)CO)C(=O)c2cccc(NC(=O)C3CCOCC3)c2O[C@H]1CN(C)C(=O)Nc1ccc2c(c1)OCO2 | inactive | inactive | inactive
COc1ccc(CN(C)C[C@H]2OCCCC[C@H](C)Oc3ccc(NC(=O)Nc4ccc(C(F)(F)F)cc4)cc3C(=O)N([C@H](C)CO)C[C@@H]2C)cc1 | active | active | inactive
C[C@H]1CN([C@@H](C)CO)C(=O)c2cc(NC(=O)C3CC3)ccc2O[C@H]1CN(C)S(=O)(=O)c1ccc(F)cc1 | inactive | inactive | inactive
C[C@@H]1CN([C@H](C)CO)C(=O)c2cccc(NC(=O)C3CC3)c2O[C@H]1CN(C)S(=O)(=O)c1ccc(F)cc1 | inactive | inactive | inactive
COc1ccc(S(=O)(=O)Nc2ccc3c(c2)C(=O)N([C@H](C)CO)C[C@@H](C)[C@@H](CN(C)S(=O)(=O)c2cn(C)cn2)OCCCC[C@H](C)O3)cc1 | inactive | inactive | inactive
C[C@@H]1CN([C@H](C)CO)C(=O)Cc2cc(NC(=O)Cn3cnnn3)ccc2O[C@H]1CN(C)C(=O)Nc1ccc(C(F)(F)F)cc1 | inactive | inactive | inactive
C[C@@H]1CN([C@@H](C)CO)C(=O)c2cc(NC(=O)CCCN(C)C)ccc2O[C@@H]1CN(C)S(=O)(=O)c1cn(C)cn1 | inactive | inactive | inactive
C[C@H](CO)N1C[C@H](C)[C@@H](CN(C)C(=O)C2CCOCC2)Oc2ncc(C#CCc3ccccc3)cc2C1=O | inactive | inactive | inactive
C[C@H]1CN([C@@H](C)CO)C(=O)c2cccc(NC(=O)C3CCCCC3)c2O[C@@H]1CN(C)C(=O)Nc1ccc(C(F)(F)F)cc1 | inactive | inactive | inactive
C[C@@H]1CN([C@@H](C)CO)C(=O)c2cccc(NC(=O)Nc3ccc(F)cc3)c2O[C@H]1CN(C)S(C)(=O)=O | inactive | inactive | inactive
COc1ccc(S(=O)(=O)N(C)C[C@@H]2Oc3ccc(NC(=O)Cc4ccccc4)cc3C(=O)N([C@H](C)CO)C[C@@H]2C)cc1 | inactive | inactive | inactive
C[C@H]1CN([C@@H](C)CO)S(=O)(=O)c2ccc(C#CC3(O)CCCC3)cc2O[C@H]1CN(C)C(=O)Nc1cccc(F)c1 | inactive | inactive | inactive
C[C@H](CO)N1C[C@H](C)[C@H](CN(C)C(=O)Nc2ccc(C(F)(F)F)cc2)OCCCC[C@H](C)Oc2ccc(NS(C)(=O)=O)cc2C1=O | inactive | inactive | inactive
Cc1ccccc1S(=O)(=O)N1C[C@@H](O)COC[C@@H]2O[C@@H](CC(=O)N3CCN(C)CC3)CC[C@H]21 | inactive | inactive | inactive
O=C(O)[C@@H]1CCCN1 | inactive | inactive | inactive
COc1ccc(NC(=O)Nc2ccc3c(c2)C(=O)N([C@@H](C)CO)C[C@@H](C)[C@H](CN(C)Cc2ccc(Cl)c(Cl)c2)OCCCC[C@@H](C)O3)cc1 | inactive | inactive | inactive
